Measurements published in article PMC6212790.
The other results are listed elsewhere or left out. At the low end of the ranking the order means little.

The sequences below were run against T1, GST-Rok (full length) (UniProt O34857) (assay: protein binding microarray). Conditions: Rok is a gene silencer of Bacillus subtilis; high values mean tight binding; most listed sequences are background and not binding sites; double strand, one strand shown.
T1 sequence: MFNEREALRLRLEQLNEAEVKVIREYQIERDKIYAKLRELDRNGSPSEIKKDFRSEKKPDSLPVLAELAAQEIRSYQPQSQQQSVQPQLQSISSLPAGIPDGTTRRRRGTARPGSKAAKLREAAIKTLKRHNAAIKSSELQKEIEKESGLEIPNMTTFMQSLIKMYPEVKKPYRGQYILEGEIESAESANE
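Also: rank score from −0.5 (least bound) to 0.5 (best bound).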

| Sequence | binding signal |
| --- | --- |
| CTTGGGTA | 0.0173 E-score |
| AATATACT | 0.395 E-score |
| CACGAAGC | -0.046 E-score |
| AGTAGATG | 0.283 E-score |
| CCACAAGG | -0.347 E-score |
| TAAGAACA | 0.1 E-score |
| ATGTCCAC | 0.177 E-score |
| AACAAGCT | -0.244 E-score |
| ACTACGTC | 0.181 E-score |
| TCCTGCGA | -0.243 E-score |
| GGATTAAA | 0.0576 E-score |
| TAGGTCAA | 0.207 E-score |
| CTTCAGAC | -0.203 E-score |
| ACGAGGTG | 0.0198 E-score |
| AAGGGCGC | -0.215 E-score |
| AGGGTTCG | -0.289 E-score |
| ATCGCCGA | 0.0296 E-score |
| ATTAAAGG | -0.0538 E-score |
| AAGAGACG | -0.161 E-score |
| AGCATTCC | 0.0415 E-score |
| CTGTCAAG | -0.0278 E-score |
| GGTTCTAA | -0.053 E-score |
| CCAGCAAG | 0.121 E-score |
| ACAGCTTG | -0.0835 E-score |
| AAGCTTGC | 0.039 E-score |
| ATCTCGGG | 0.0686 E-score |

| Sequence | binding signal |
| --- | --- |
| ATCGCGTC | -0.113 E-score |
| AACAAGGA | -0.127 E-score |
| ATTGCGGG | -0.118 E-score |
| GGCCCTAA | -0.279 E-score |
| CGGGTGCC | -0.275 E-score |
| ATCACGTG | 0.189 E-score |
| AGAAGGGA | -0.296 E-score |
| GGCTAGCA | 0.164 E-score |
| CGGCAGAC | -0.0742 E-score |
| CGAGACCC | -0.116 E-score |
| CGGGATGA | -0.0551 E-score |
| ACACGAAA | 0.118 E-score |
| ACCAACGA | 0.102 E-score |
| AAGGCTGT | -0.136 E-score |
| ACGCTGCT | -0.0607 E-score |
| ACGTAAGA | 0.197 E-score |
| ATGCTAAC | 0.117 E-score |
| AGACTCGA | -0.136 E-score |
| GGCAAGCA | -0.268 E-score |
| AGCGTATG | 0.126 E-score |
| ACTAATCT | 0.218 E-score |
| AGCCAGTG | -0.197 E-score |
| CGAGGGCG | -0.284 E-score |
| CGTGATTA | 0.0497 E-score |
| TGGCTACA | -0.171 E-score |
